# Laboratory results reported in PubChem BioAssay AID2451 (National Center for Advancing Translational Sciences (NCATS), 2010).
# Where “and” joins values, the source holds several entries; their conditions need not be identical. Identical values can stand only once. About 2,100 (0.72%) of roughly 290,000 compounds were called active. This list was built around the results that the source calls inconclusive (neither active nor inactive); the mix of calls is not that of the screen. Calls follow the shape of the dose curve; as a rule, active = well fitted inhibition curve with a large enough effect; inconclusive = small, poorly fitted or top-dose-only effect, or effect the other way; inactive = flat fitted curve, though single readings scatter. A potency beside an inconclusive call is a rough fit, not a confirmed value.
# Target: Fructose-bisphosphate aldolase (Giardia intestinalis (strain ATCC 50803 / WB clone C6)) (UniProt A8B2U2)
# Test: qHTS Assay for Inhibitors of Fructose-1,6-bisphosphate Aldolase from Giardia Lamblia; also: nearly all actives have a fitted effect of over 55% in size
# Conditions: purified Giardia FBPA; series mostly up to 59.6 µM
# Procedure, shortened: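 Giardia FBPA (40 nM reagent) was preincubated 10 min at RT with compound (up to 57.5 uM final), then substrate plus GAPDH/TPI/NAD/arsenate coupling system with diaphorase/resazurin was added; resorufin fluorescence (525/598 nm) was read after 20 min.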
# Potency is read from the fitted curve at half-maximal effect; tags tell the direction and shape of the fitted curve.
# UniProt A8B2U2, sequence (A8B2U2 whole entry, looked up): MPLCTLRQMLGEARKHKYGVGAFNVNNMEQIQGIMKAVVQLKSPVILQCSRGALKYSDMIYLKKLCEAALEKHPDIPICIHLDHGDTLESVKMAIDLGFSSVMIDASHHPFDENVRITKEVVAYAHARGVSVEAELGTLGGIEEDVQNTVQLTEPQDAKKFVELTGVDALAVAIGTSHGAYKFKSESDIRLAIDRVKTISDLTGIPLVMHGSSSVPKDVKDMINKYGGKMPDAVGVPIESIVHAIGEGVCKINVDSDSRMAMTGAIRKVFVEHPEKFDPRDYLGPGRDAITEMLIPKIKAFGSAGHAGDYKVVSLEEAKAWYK
row,Structure (SMILES),Potency
1,O=C1C(Cl)=C(N2CCCCC2)C(=O)C(Cl)=C1c1cnc(N2CCCCC2)s1,active: 7.06 µM
2,COc1cc(/C=N/Nc2nncn2N)ccc1OCc1c(C)no[n+]1[O-],active: 5 µM
3,Cc1ccc(S(=O)(=O)Nc2ccc3[nH]c(=O)[nH]c3c2)c(C)c1,"inconclusive: 15.8 µM [inhibitor, single point]"
4,Brc1ccc(CN2CCSCC2)cc1,"inconclusive: 19.9 µM [inhibitor, single point]"
5,CCOc1ccc(C(=O)Nc2ccc(Cl)cn2)cc1Cl,inactive
6,CCCOc1ccc(Cc2c(Cl)nc(SC)nc2OC)cc1,inactive
7,COCCn1c(=O)[nH]c(=O)c2c1nc(-c1ccc(-c3ccc(Cl)cc3[N+](=O)[O-])o1)n2Cc1ccccc1,"inconclusive: 19.9 µM [inhibitor, partial curve]"
8,NC(=O)C1CCN(CC(O)COc2ccc(-c3ccccc3)cc2)CC1 (configuration not stated),inactive
9,O=c1ccc(NS(=O)(=O)c2ccccc2)cn1Cc1ccc(Cl)c(Cl)c1,"inconclusive: 7.06 µM [inhibitor, partial curve]"
10,Clc1ccccc1OCc1nn[nH]n1,inactive
11,O=C(NCc1ccccc1Cl)c1cc(=O)[nH]c2ccccc12,inactive
12,Cc1ccc(NC(=O)CSc2nc3ncc(Cl)cc3[nH]2)c(C)c1,"inconclusive: 20 µM [inhibitor, partial curve]"
13,NNc1nc(-c2ccccc2)cs1,"inconclusive: 25.1 µM [inhibitor, single point]"
14,Clc1ccccc1Nc1ncnc2c1nnn2Cc1ccccc1,inactive
15,CNC(=S)NNS(=O)(=O)c1ccc(OC)cc1OC,active: 19.9 µM
16,CCC(C)N1CCN(C(=O)COc2ccc3ccccc3c2)CC1 (configuration not stated),"inconclusive: 12.6 µM [inhibitor, partial curve]"
17,CCOCCCNCc1ccc(OC)c(OC)c1,"inconclusive: 19.9 µM [inhibitor, partial curve]"
18,CC(=O)N1C(=O)C2(C(C#N)=C(N)Oc3c2c(C)nn3-c2ccccc2)c2ccccc21 (configuration not stated),"inconclusive: 4.46 µM [inhibitor, full curve]"
19,Cc1ccc(S(=O)(=O)c2nc(S(C)(=O)=O)sc2N2CCC3(CC2)OCCO3)cc1,inactive
20,N#Cc1c(NC(=O)c2nc3ncccn3n2)sc2c1CCCCC2,"inconclusive: 25.1 µM [inhibitor, single point]"
21,CCc1ccc(C(=O)N2CCN(c3ccc(NC(=O)c4ccco4)cc3)CC2)cc1,inactive
22,CCOC(=O)C1CCN(c2ncnc3c(C)csc23)CC1,inactive
23,Cc1c(Cl)cccc1NC(=S)Nn1cnnc1,"inconclusive: 17.7 µM [inhibitor, partial curve]"
24,O=C(O)c1ccc(-n2nc(C(F)(F)F)c3c2CCCC3)cc1,"inconclusive: 19.9 µM [activator, single point] and inconclusive: 15.8 µM [activator, single point]"

row,Structure (SMILES),Potency
1,O=C(N/C(C(=O)N1CCOCC1)=C(\Sc1ncccn1)c1ccccc1)c1ccccc1,inactive
2,COc1ccc(Br)cc1CN1CCCC(C(=O)N2CCCCC2)C1 (configuration not stated),"inconclusive: 17.7 µM [inhibitor, partial curve]"
3,Cc1cc(C(=O)N/N=C/c2cccnc2)c2ccccc2n1,inactive
4,Cc1cc(C)c(C(N)=O)c(Nc2cccc3ccccc23)n1,"inconclusive: 19.9 µM [inhibitor, single point]"
5,O=C(O)c1ccc(/C=N/Nc2ncc(Cl)cc2Cl)cc1,"inconclusive: 25.1 µM [inhibitor, partial curve]"
6,O=C1NC(=S)N(c2ccc(F)cc2)C(=O)/C1=C\c1ccoc1,"inconclusive: 17.7 µM [inhibitor, single point]"
7,O=C(c1ccc2c(=O)n(Cc3ccccc3)c(=S)[nH]c2c1)N1CCOCC1,"inconclusive: 7.94 µM [inhibitor, partial curve]"
8,O=C(COC(=O)c1ccc([N+](=O)[O-])o1)Nc1cccc(S(=O)(=O)N2CCCCC2)c1,"inconclusive: 15.8 µM [inhibitor, single point]"
9,Cc1nonc1CN(C)C(=O)CC1C(=O)NCCN1Cc1cccc(C(F)(F)F)c1 (configuration not stated),"inconclusive: 22.3 µM [inhibitor, partial curve]"
10,CCN1CCN(CCOc2ccccc2OCc2ccccc2)CC1,"inconclusive: 12.6 µM [inhibitor, partial curve]"
11,O=C(NNc1cc(N2CCCC2)nc(N2CCCC2)n1)c1ccc([N+](=O)[O-])cc1,"inconclusive: 5 µM [inhibitor, partial curve]"
12,O=C(Nc1nnc(-c2cccs2)o1)c1cc(-c2ccccc2)nc2ccccc12,"inconclusive: 15.8 µM [activator, partial curve]"
13,CCN(CC)CC(=O)Nc1c2c(nc3ccccc13)N(C)CC2,"inconclusive: 14.1 µM [inhibitor, partial curve]"
14,COc1cccc(-n2nc(C(N)=O)c(O)cc2=O)c1,inactive
15,N#CC1=C(N)C(C#N)(C#N)[C@H](c2ccsc2)[C@H]2COCC=C12,"inconclusive: 7.92 µM [inhibitor, partial curve]"
16,COc1cc(O)cc(OC)c1OC,"inconclusive: 17.7 µM [inhibitor, partial curve]"
17,Cc1nc(COC(=O)c2cc(O)c3ccccc3c2O)cs1,active: 19.9 µM
18,COc1ccccc1CN1CCN(S(=O)(=O)c2ccccc2)CC1,"inconclusive: 15.8 µM [inhibitor, single point]"
19,CCOC(=O)N1CCN(C(=O)CNCc2cccs2)CC1,"inconclusive: 19.9 µM [inhibitor, partial curve]"
20,Cc1ccccc1OCC(=O)NC1=NCCS1,inactive
21,COCCN(CCOC)S(=O)(=O)c1ccc(C(=O)Nc2nnc(CSC)o2)cc1,"inconclusive: 17.7 µM [inhibitor, partial curve]"
22,S=C1SCN(CC2CC2)CN1CC1CC1,"inconclusive: 17.7 µM [inhibitor, single point]"
23,COc1ccc(-n2c(=S)[nH]c3cc(C(=O)Nc4cc(C(N)=O)ccc4OC)ccc3c2=O)c(OC)c1,"inconclusive: 10 µM [inhibitor, partial curve]"
